According to the supplement of paper PMC3334620:
In all, about 33,000 sequences were measured (“E-score (-0.5 to 0.5)”: median about -0.035, highest 2% from about 0.35 on). The list shows a part of the results.

Each sequence was assayed against T1, Pdr3 (UniProt P33200) (assay: PBM E-score (8-mer binding enrichment) (E-score (-0.5 to 0.5)); higher = stronger / more preferred TF binding; most listed sequences are background and not binding sites). Conditions: protein concentration: 200 nM; construct: GST-full length.
T1 sequence: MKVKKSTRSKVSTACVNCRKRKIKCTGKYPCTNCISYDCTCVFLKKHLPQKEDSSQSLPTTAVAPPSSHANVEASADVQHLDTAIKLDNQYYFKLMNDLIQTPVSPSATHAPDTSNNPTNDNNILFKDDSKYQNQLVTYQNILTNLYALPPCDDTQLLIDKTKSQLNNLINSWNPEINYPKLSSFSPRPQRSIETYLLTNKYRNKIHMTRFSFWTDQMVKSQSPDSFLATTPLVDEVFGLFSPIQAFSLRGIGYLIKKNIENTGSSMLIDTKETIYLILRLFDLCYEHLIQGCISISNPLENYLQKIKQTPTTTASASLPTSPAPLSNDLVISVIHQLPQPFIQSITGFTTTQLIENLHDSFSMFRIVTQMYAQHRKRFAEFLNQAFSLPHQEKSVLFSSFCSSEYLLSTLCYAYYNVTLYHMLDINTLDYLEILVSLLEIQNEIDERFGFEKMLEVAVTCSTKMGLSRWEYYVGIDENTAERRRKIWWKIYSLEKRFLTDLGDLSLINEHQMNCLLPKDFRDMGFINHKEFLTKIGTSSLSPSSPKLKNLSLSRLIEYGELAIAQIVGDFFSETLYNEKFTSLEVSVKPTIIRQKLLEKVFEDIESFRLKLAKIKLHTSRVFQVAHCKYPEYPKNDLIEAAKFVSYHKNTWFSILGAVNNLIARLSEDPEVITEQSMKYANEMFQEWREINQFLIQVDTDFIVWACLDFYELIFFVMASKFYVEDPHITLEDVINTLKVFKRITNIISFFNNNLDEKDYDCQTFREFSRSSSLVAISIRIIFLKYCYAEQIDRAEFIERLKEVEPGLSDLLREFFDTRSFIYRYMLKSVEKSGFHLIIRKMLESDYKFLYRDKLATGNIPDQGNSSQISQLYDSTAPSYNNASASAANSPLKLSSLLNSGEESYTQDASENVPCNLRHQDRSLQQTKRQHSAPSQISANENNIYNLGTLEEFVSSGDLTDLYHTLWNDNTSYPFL
Summary of the method: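 For each ungapped eight-base word taken together with its reverse complement, the Universal PBM Analysis Suite assigned an E-score. Binding data came from GST-tagged yeast transcription factors, applied at about 100-200 nM, on universal all-10-mer Agilent arrays made double-stranded by primer extension. Fluorescent anti-GST marked bound protein, and scans were normalised with masliner.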

Row | Sequence | PBM E-score
1 | GCGTGTTA | -0.33
2 | CCACTTTA | -0.00202
3 | AAACCGAA | -0.0124
4 | CCAAATTA | -0.0438
5 | CCCTAACG | -0.1
6 | GTTGCTTA | -0.165
7 | AACTTTGC | 0.03
8 | CGAGTTTA | 0.0684
9 | AACATCCG | 0.341
10 | AAAGTGCC | -0.142
11 | CATTGTTC | 0.133
12 | GCTATTGA | -0.16
13 | AATAGCCG | 0.181
14 | ACTTCATA | -0.0314
15 | ACAGTGCA | 0.00423
16 | CACGGATA | 0.373
17 | ACACATAT | -0.0796
18 | CACTAAGG | -0.0887
19 | CTGAGGTA | 0.0809
20 | CAATGACC | -0.229
21 | GCGTGATA | -0.0226
22 | AATTATAC | 0.102
23 | AAAAGAGA | -0.184
24 | ACGGTAGA | -0.0787
25 | AGACAACG | 0.164

Row | Sequence | PBM E-score
26 | CGGATGAG | 0.304
27 | TCAGCTGA | 0.0232
28 | ACTTTGCG | -0.0278
29 | ATGAGCAG | -0.167
30 | ACCATCCG | 0.268
31 | ATGCCGGG | 0.245
32 | CCTACACA | -0.00032
33 | ACCCATCG | 0.0706
34 | CACAAGTA | 0.0141
35 | AACCGCTC | -0.0195
36 | AGAGATCG | -0.137
37 | AGAAGCAA | -0.0392
38 | AGGATTGG | -0.151
39 | CCCAACCG | 0.00518
40 | CCGAGGAA | 0.271
41 | ACGTGTCT | -0.103
42 | AATCCACT | -0.089
43 | GCCTCGCA | -0.0192
44 | CATGTAAG | -0.196
45 | CTAAGGCC | -0.141
46 | GGAGAGTA | 0.129
47 | TCTTAGAA | -0.00746
48 | CACTTATA | 0.00883
49 | ACTGCAAG | -0.164
50 | CTGCCAGC | -0.152

Row | Sequence | PBM E-score
51 | CCAGAGTA | -0.0369
52 | ACAATACG | 0.0898
53 | CGACTTCA | -0.0565
54 | ACACACTG | -0.134
55 | ACCATCGC | 0.0596
56 | ACTTTTGA | 0.0691
57 | AGTTCTAA | 0.00941
58 | ACCACGCA | -0.284
59 | CATACGCC | -0.0998
60 | AGTGACTC | -0.193
61 | GAGTTGGC | 0.115
62 | CCGGAAGA | 0.403
63 | AGTAAGGC | -0.0279
64 | AAACCATC | 0.0527
65 | AACCGACG | 0.238
66 | CCCCAATA | -0.21
67 | GTTCGATA | 0.0982
68 | TAAGTCGA | -0.244
69 | ATCCGGGC | 0.386
70 | AATCCCCG | 0.296
71 | AGGCCCCC | -0.151
72 | CTGGATAA | 0.0177
73 | GCTTTTTA | -0.048
74 | ACTTATGA | -0.114
75 | ACGTGAGA | -0.254

Row | Sequence | PBM E-score
76 | AAAGGTCC | 0.0345
77 | AGAGAGTG | -0.209
78 | ACCTTGGA | -0.0875
79 | CTAGTGTC | 0.0125
80 | AGGACGTG | -0.15
81 | GTTCTCGA | -0.0688
82 | AATTAATT | -0.123
83 | GAAGGTCC | 0.13
84 | GGTCAATA | -0.124
85 | ATGGTTCG | 0.0613
86 | CGATGGGA | 0.173
87 | CCAGGGAA | -0.132
88 | GTGTCACA | 0.0846
89 | ACGTTACC | -0.0343
90 | TGGGTTAA | -0.123
91 | ACACCTGG | -0.159
92 | CGTTGATA | 0.12
93 | GGGCCAAA | 0.106
94 | GTTCCAGA | -0.0517
95 | ATTCAATC | 0.17
96 | GCAGCAGC | -0.0415
97 | ACGTACAG | -0.229
98 | ACGACGCG | 0.0646
99 | CACTGTGG | -0.133
100 | GCACATCA | -0.0746

Row | Sequence | PBM E-score
101 | TAGACTAA | -0.29
102 | AGGAGATG | -0.095
103 | GGTGCGTA | -0.00871
104 | AAAATTTG | -0.248
105 | GGAGCACA | 0.0257
106 | AGCGCTCC | 0.035
107 | ATGGTGTA | -0.266
108 | CCACAGCA | -0.0435
109 | CATCTTGC | -0.0252
110 | ACCGCAAT | 0.158
111 | AACACGCG | -0.119
112 | AGCGTAAA | -0.0667
113 | ATGCTAAA | -0.162
114 | CAAAAATC | -0.175
115 | ATTTGCCA | -0.287
116 | AGATAACT | -0.122
117 | GCGGATCA | 0.296
118 | TCTCACCA | 0.117
119 | CATATGCC | -0.00179
120 | AAAAGCGT | -0.0607
121 | AAGCTATC | 0.109
122 | ATGTACGA | 0.0462
123 | CAGGAACG | -0.0257
124 | GTAATTCA | -0.0724
125 | GCCATGAC | -0.185

Row | Sequence | PBM E-score
126 | CGACAGGC | -0.162
127 | ACGGGTAG | 0.0793
128 | ACCTCCAG | -0.172
129 | GTAACCGA | 0.0824
130 | ATGAAGTG | -0.0256
131 | CTGAGAGA | -0.189
132 | ATCAGTGC | -0.173
133 | ACCAATCC | 0.182
134 | AAACTGGT | -0.00599
135 | CCTTGAAC | -0.137
136 | GACACTGA | -0.00525
137 | GAGTGTAC | -0.0902
138 | GTAGCACA | -0.147
139 | CTCAAATA | -0.118
140 | GGTAAGAC | -0.0755
141 | ACAAGGCC | -0.111
142 | AGCTGGAT | -0.0726
143 | CTTATACA | -0.217
144 | CTGATTTA | -0.0745
145 | AACCGGAT | 0.316
146 | ATGTTCCG | 0.48
147 | GATCATCC | 0.221
148 | ACAATTAG | -0.156
149 | CCCGCACC | 0.225
150 | AGAGACAT | -0.0527

Row | Sequence | PBM E-score
151 | AGTGACGA | -0.0467
152 | CACGTCCG | 0.229
153 | AGAGTTTA | 0.0734
154 | GGGGTTAA | 0.0549
155 | CGGACGGA | 0.367
156 | AAAAGGTG | -0.119
157 | ATACTAGG | 0.0531
158 | AAGGGCCC | 0.00697
159 | ATCACGCG | 0.119
160 | AGCGTACA | -0.276
161 | ATCATGGG | -0.0668
162 | CCCCCGAG | -0.0658
163 | AGGCCCGG | 0.115
164 | AGAAGTTA | -0.145
165 | CACAAGCA | -0.171
166 | GGGCAACA | 0.031
167 | GATGATAA | 0.0161
168 | ATTCAAGG | -0.271
169 | AACTGAGA | -0.222
170 | CCCAATCG | 0.0319
171 | ACCAGCGT | -0.167
172 | ACGGAAAT | 0.452
